Assay results taken from PubChem BioAssay AID485294 (National Center for Advancing Translational Sciences (NCATS), 2010).
Out of some 370,000 compounds screened, about 150 (0.041%) were called active. Inconclusive results, whose numbers are uncertain, are shown with a selection of clear calls. The call rests on the fitted dose curve; in most records, active means well fitted inhibition curve with a large enough effect; inconclusive means small, poorly fitted or top-dose-only effect; inactive means flat fitted curve, though single readings scatter. Potencies of inconclusive entries are left out as doubtful fits.

biological target: Beta-lactamase (Escherichia coli (strain K12)) (UniProt P00811); assay: qHTS Inhibitors of AmpC Beta-Lactamase (assay with detergent); conditions: AmpC hydrolysis of nitrocefin, absorbance 480 nm, 0.01% Triton; activity change, negative = inhibition: at 114 µM (top of the series); further: nearly all actives have a fitted effect of over 25% in size;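 on activity change, negative = inhibition: 0% = no-compound wells and -100% = no-enzyme wells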
Method in brief: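 20 mM phosphate pH 7.0 + 0.01% (detergent screen) or 0.0001% Triton X-100; 5.3 nM AmpC reagent; cpd preinc 15 min RT; nitrocefin (800 uM stock) to start; A480 q20 s × 4 min; Activity was normalised to no-enzyme and no-compound control wells.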
Potency means the concentration at half of the fitted maximal effect; tags describe the fitted curve by direction and shape.

Sequence of UniProt P00811 (P00811 whole entry, looked up): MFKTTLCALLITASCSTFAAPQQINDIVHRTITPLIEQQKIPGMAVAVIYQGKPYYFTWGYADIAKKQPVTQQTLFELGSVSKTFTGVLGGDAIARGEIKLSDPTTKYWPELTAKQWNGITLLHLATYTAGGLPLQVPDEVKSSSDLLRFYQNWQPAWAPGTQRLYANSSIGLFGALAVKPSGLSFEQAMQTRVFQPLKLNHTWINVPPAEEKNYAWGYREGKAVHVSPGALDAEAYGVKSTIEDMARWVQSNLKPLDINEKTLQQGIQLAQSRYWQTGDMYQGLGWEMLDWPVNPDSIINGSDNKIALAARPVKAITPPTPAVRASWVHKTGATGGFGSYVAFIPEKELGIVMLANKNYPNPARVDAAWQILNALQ

SMILES	Potency	activity change, negative = inhibition
O=C(CSc1cn(Cc2ccccc2)c2ccccc12)N1CCOCC1	inconclusive [inhibitor, full curve]	–
CCOC(=O)c1cnc2ccc(C)cc2c1NCCO	inconclusive [inhibitor, single point]	–
Cc1ccc(-c2ccc(/C=N/N=C3/NC(=O)C(CC(=O)O)S3)o2)c([N+](=O)[O-])c1 (stereo unspecified)	inconclusive [inhibitor, partial curve, poor fit]	–
CC(=O)c1c(C(C)=O)c(C)n(-c2cccc([N+](=O)[O-])c2)c1C	–	inactive: 0.984%
O=C(c1cc2ccccc2o1)N1CCN(S(=O)(=O)c2cccs2)CC1	–	inactive: 1.38%
O=C(CCNS(=O)(=O)c1ccc2ccccc2c1)NCCOc1ccccc1	inconclusive [inhibitor, partial curve, poor fit]	–
CC(C)(C)NC(=O)CSc1nnc(C2CC2)n1Cc1ccccc1	inconclusive [inhibitor, partial curve]	–
Cn1cc(CN2CCCC(C(=O)c3cc(F)ccc3F)C2)c2ccccc21 (stereo unspecified)	–	inactive: 7.73%
COc1cc(NC(=O)CN(c2cc(C)cc(C)c2)S(=O)(=O)c2c(C)noc2C)cc(OC)c1	inconclusive [inhibitor, full curve]	–
COc1ccc(CCNC(=O)CSc2nc(=O)n3cccc(C)c3n2)cc1OC	inconclusive [inhibitor, single point]	–
COc1cccc(-n2ccnc2SCC(=O)N2CCc3ccccc32)c1	inconclusive [inhibitor, full curve, poor fit]	–
CCN(CC)c1c2c(c(C#N)c3nc4ccccc4n13)CCC2	inconclusive [inhibitor, full curve, poor fit]	–
COc1cc(/C=C2/C(=O)N(C)C(=S)N2C)ccc1OCc1cccc(F)c1	–	inactive: -4.79%
O=C(Nc1cccc(-c2nc3cc(Cl)ccc3o2)c1)c1cc([N+](=O)[O-])ccc1N1CCOCC1	–	inactive: 0.118%
CNC(=O)N(c1ccccc1)c1ccccc1	–	inactive: -7.87%
O=C1C(=O)N(CCN2CCOCC2)C(c2ccccc2)/C1=C(\O)c1ccc2c(c1)OCCO2 (stereo unspecified)	–	inactive: -14.8%
Cc1ccc(N(CCCCN2C(=O)c3ccccc3C2=O)C(=O)c2ccc(Cl)s2)cc1	inconclusive [inhibitor, single point]	–
CCOC(=O)c1sc2nc(CC(=O)OC)nc(N(C)CCc3ccccn3)c2c1C	inconclusive [inhibitor, single point]	–
Cc1ccc(Cn2nnnc2CN2CCC(n3nnc4cc(C(F)(F)F)ccc43)CC2)cc1	inconclusive [inhibitor, full curve]	–
COc1ccc(OC)c2[nH]c(C(=O)N/N=C/c3ccccc3O)cc12	inconclusive [inhibitor, partial curve, poor fit]	–
Cc1cccc(-c2noc(CN(C(=O)C(c3ccccc3)c3ccccc3)C(C)C)n2)c1	inconclusive [inhibitor, full curve]	–

SMILES	Potency	activity change, negative = inhibition
Cc1cc(C(=O)NCC(c2ccco2)N(C)C)ccc1[N+](=O)[O-] (stereo unspecified)	inconclusive [inhibitor, partial curve]	–
COc1ccc(S(=O)(=O)N2CCCCCC2)cc1C(=O)OCC(=O)NC(C)(C)C	–	inactive: -5.98%
O=C(Nc1cccc(S(=O)(=O)NC2=NCCCCC2)c1)C1COc2ccccc2O1 (stereo unspecified)	inconclusive [inhibitor, single point]	–
Cc1sc(NC(=O)CN2C(=O)NC3(CCCC3)C2=O)nc1-c1ccc(F)cc1	inconclusive [inhibitor, full curve, poor fit]	–
O=C1C=CC(=O)N1CCCCCCN1C(=O)C=CC1=O	inconclusive [inhibitor, partial curve]	–
Nc1c(Cl)ncnc1N1CCN(c2ncnc(Cl)c2N)CC1	inconclusive [inhibitor, partial curve, poor fit]	–
COc1ccc(NC(=O)c2csc3c2CCCCC3)cc1	–	inactive: -3.43%
COc1cc(OC)cc(-c2c(-c3ccc(F)cc3)c3cc(-c4cnc(OC)nc4)ccc3n2C)c1	–	inactive: -0.613%
Cc1cc(C)c2c(=O)[nH]n(C3CCOC(C)(C)C3)c2n1 (stereo unspecified)	inconclusive [inhibitor, full curve, poor fit]	–
CCn1nc([N+](=O)[O-])c(C(C#N)c2nc3cc(C(F)(F)F)ccc3s2)c(Cl)c1=O (stereo unspecified)	inconclusive [inhibitor, full curve]	–
COc1cccc(-c2nc(SCc3cc(=O)c4ccc(C)c(C)c4[nH]3)n[nH]2)c1	–	inactive: 18.4%
CCc1cccc2c(C(=O)COC(=O)c3cnc(C)cn3)c[nH]c12	inconclusive [inhibitor, partial curve, poor fit]	–
Cc1c(C(=O)c2no[n+]([O-])c2C(=O)c2cnn(C)c2C)cnn1C	inconclusive [inhibitor, partial curve, poor fit]	–
CCN(C(=O)COC(=O)c1ccc(OC)c(S(=O)(=O)N(C)Cc2ccccc2)c1)C1CCS(=O)(=O)C1 (stereo unspecified)	inconclusive [inhibitor, full curve, poor fit]	–
COc1ccc(OCCN2CCN(S(=O)(=O)c3ccccc3C(F)(F)F)CC2)cc1	inconclusive [inhibitor, full curve, poor fit]	–
CCC1=C(OC(=O)N(CC)CC)N2C(=O)OC(=NCC(=O)OC)[C@]2(Cc2ccccc2)[C@H]2C1=CC[C@H]1C(=O)N(CC(=O)OC)C(=O)[C@H]12	–	inactive: -3.72%
Cc1ccc(C)c(-c2nc(Cn3c(=O)cc(-c4ccccc4)c4c(C)nn(C)c43)c(C)o2)c1	–	inactive: 6.01%
COc1cc(C(=O)NCCNc2nc3c(C)c(C)ccc3cc2C#N)cc(OC)c1OC	inconclusive [inhibitor, full curve]	–
Cc1c(-c2ccccc2)oc2c(C(=O)OCC(=O)Nc3ccc(F)cc3)cccc2c1=O	–	inactive: -6.06%
Cn1c(=O)c2c(SCC(=O)N3CCOCC3)nc(-c3ccccc3F)nc2n(C)c1=O	inconclusive [inhibitor, partial curve]	–
